In all, about 410,000 compounds went through this assay and about 6,400 (1.6%) were called active. The shares of active, inactive and inconclusive entries below differ from those in the screen. Calls follow the shape of the dose curve; as a rule, active = well fitted inhibition curve with a large enough effect; inconclusive = small, poorly fitted or top-dose-only effect; inactive = no such curve, though single readings can be large or run the other way. No potency is given beside an inconclusive call; the fits are too rough.
What follows are molecules tested against Glucagon-like peptide 1 receptor (Homo sapiens) (UniProt P43220) (assay: qHTS of GLP-1 Receptor Inverse Agonists (Inhibition Mode)). Details: HEK293 GLP-1R CRE-luciferase, luminescence, 24 h, GLP-1R form is constitutively active; activity change, negative = inhibition: at 38.3 µM (top of the series) unless noted.
UniProt P43220, sequence (P43220 whole entry, looked up): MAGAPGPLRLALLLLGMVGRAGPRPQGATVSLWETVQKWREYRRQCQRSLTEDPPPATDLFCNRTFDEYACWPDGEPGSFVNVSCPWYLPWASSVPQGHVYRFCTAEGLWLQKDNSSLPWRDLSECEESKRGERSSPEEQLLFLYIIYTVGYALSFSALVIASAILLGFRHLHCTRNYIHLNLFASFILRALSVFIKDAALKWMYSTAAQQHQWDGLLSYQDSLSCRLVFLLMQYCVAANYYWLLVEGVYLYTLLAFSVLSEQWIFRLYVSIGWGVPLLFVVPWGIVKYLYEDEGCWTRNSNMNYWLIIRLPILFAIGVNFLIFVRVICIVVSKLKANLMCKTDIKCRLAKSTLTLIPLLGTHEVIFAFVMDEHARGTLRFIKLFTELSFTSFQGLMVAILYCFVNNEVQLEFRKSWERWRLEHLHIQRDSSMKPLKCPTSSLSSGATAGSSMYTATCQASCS
Method in brief: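 Constitutively active GLP-1R drives a cAMP-responsive luciferase in stably transfected HEK293 cells; test compounds are added after overnight (12 h) attachment and left 24 hr, and signal loss in luminescence marks inhibition.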
% is scaled to controls: 0 for no effect and ±100 for the full control effect; potency is read from the fitted curve at half-maximal effect; tags tell the direction and shape of the fitted curve.
Also: nearly all actives have a fitted effect of over 55% in size.

SMILES	Potency	activity change, negative = inhibition
O=c1c(Cc2ccc(Cl)cc2)c(O)ccn1Cc1ccccc1	inconclusive [inhibitor, single point]	
Cc1ccc(N2C(=O)C(CN3CCCCC3)C2c2ccccc2)cc1 (stereo not drawn)	inconclusive [inhibitor, full curve, poor fit]	
c1ccc(C2CCCN(Cc3nc(CC4CC4)no3)CC2)cc1 (stereo not drawn)		inactive: 9.71% [at 7.66 µM]
Cc1cc(COc2ccccc2)oc1C(=O)O	inconclusive [inhibitor, partial curve]	
CCN(CC)c1ccc(/C=N/NC(=O)c2cccc(S(=O)(=O)Nc3ccccc3OC)c2)c(O)c1	inconclusive [inhibitor, full curve, poor fit]	
O=C(NC1=NN(c2ccccc2)CC1)Nc1ccccc1F	inactive	
O=C(Nc1ccccc1)c1cccnc1Nc1ccccc1	inconclusive [inhibitor, partial curve, poor fit]	
CCOC(=O)N1CC=C2C(C#N)=C(N)C(C#N)(C#N)[C@H](c3ccc(OCC)c(OCC)c3)[C@H]2C1	inactive	
Cc1cc(/C=C(\C#N)C(=O)Nc2ccccc2)c(C)n1-c1ccc2c(c1)OCO2	inconclusive [inhibitor, full curve]	
C/C(=N\NC(=O)c1cc(O)ccc1O)c1cccc(NC(=O)c2ccc(Cl)cc2)c1	inconclusive [inhibitor, partial curve, poor fit]	
COc1ccccc1N1CCN(C(=O)CCc2ccc(S(=O)(=O)NCC(C)C)cc2)CC1	inconclusive [inhibitor, single point]	
O=C(NCc1ccc(F)cc1)c1ccc(CS(=O)Cc2ccc(Cl)cc2)o1 (stereo not drawn)	inconclusive [inhibitor, partial curve, poor fit]	
CC(C)C[C@@H]1CN=C(N)N1C[C@@H]1CCCN1C[C@@H](C(C)C)N1C[C@@H](Cc2ccccc2)N(CCc2ccc(Cl)c(Cl)c2)C1=N	inactive	
COc1cc(/C=C(/C(=O)c2cccs2)c2nc3ccccc3[nH]2)cc(OC)c1O	inconclusive [inhibitor, single point]	
O=S(=O)(c1ccc2c(c1)OCCO2)N1CCc2ccccc21	inconclusive [inhibitor, partial curve, poor fit]	
Oc1c(C(c2ccccc2)N2CCN(c3cccc(Cl)c3)CC2)sc2nc(-c3ccco3)nn12 (stereo not drawn)	inconclusive [inhibitor, single point]	
O=c1c2ccccc2nc(-c2ccc(Br)cc2)n1Cc1ccccc1	inconclusive [inhibitor, single point]	
CCCN1CCC(NCC(C)c2ccccc2)CC1 (stereo not drawn)	inconclusive [inhibitor, partial curve]	
Cc1oc(-c2ccc(Cl)cc2)nc1CS(=O)CC(=O)NCCCN1CC(C)CC(C)C1 (stereo not drawn)	active: 5.62 µM	

SMILES	Potency	activity change, negative = inhibition
O=C(CSc1nc2ccccc2o1)Nc1nc(-c2ccccc2)c(-c2ccccc2)s1	inconclusive [inhibitor, partial curve]	
CC1(C)CC2CC(C)(CN2C(=O)COC(=O)c2cccnc2Cl)C1 (stereo not drawn)	inconclusive [inhibitor, single point]	
Cc1ccc2c(c1)C(c1ccccc1)N(C(=O)c1ccc(S(=O)(=O)N3CCCCC3)cc1)CC(=O)N2 (stereo not drawn)	inconclusive [inhibitor, single point]	
COc1ccc(C(CNC(=O)c2cc3ccccc3cc2O)N2CCOCC2)cc1 (stereo not drawn)	inconclusive [inhibitor, single point]	
O=C(NCCn1cc(SCc2ccccc2F)c2ccccc21)c1cccs1	inconclusive [inhibitor, single point]	
C=C(C)C1Cc2c(C)nn(-c3ccccc3)c2C1 (stereo not drawn)	inconclusive [inhibitor, partial curve]	
CCN(CC)CCNCC1C(=O)O[C@@H]2C[C@@]3(C)CCC[C@H](C)C3=C[C@H]12 (stereo partly drawn)	inconclusive [inhibitor, partial curve, poor fit]	
Cc1ccc(-c2nnc(Nc3ccc4c(c3)OCO4)c3ccccc23)cc1S(=O)(=O)NC(C)C	inconclusive [inhibitor, partial curve, poor fit]	
O=C(Cn1cc(C(F)(F)F)cc(Cl)c1=O)Nc1cc(S(=O)(=O)N2CCOCC2)ccc1Cl	inconclusive [inhibitor, full curve, poor fit]	
CCOc1ccc2nc(SCC(=O)N3CCN(C(=O)c4ccco4)CC3)sc2c1	inconclusive [inhibitor, single point]	
COc1ccc(/C=C/CN2CCN(CCc3ccccc3)C(CCO)C2)cc1 (stereo not drawn)	inconclusive [inhibitor, partial curve, poor fit]	
O=C(CCSc1nc(-c2ccco2)cc(C(F)(F)F)n1)N1CCCc2ccccc21	inconclusive [inhibitor, single point]	
COC(=O)[C@@]1(Sc2ccc(C)cc2)CC(=O)N(c2ccccc2)[C@@H]1c1ccccc1	inconclusive [inhibitor, partial curve, poor fit]	
CC(=O)Nc1cccc(-c2ccnc3c2CC(C)(C(=O)Nc2ccccc2)O3)c1 (stereo not drawn)	inactive	
C(=N\N1CCOCC1)/c1cn(-c2ccccc2)nc1-c1ccccc1	inconclusive [inhibitor, single point]	
Fc1ccc(C(Nc2ccccc2Cl)c2nnc(-c3ccccc3Cl)o2)cc1 (stereo not drawn)	inconclusive [inhibitor, partial curve, poor fit]	
Cc1ccc(OC(=O)c2cc(C)nn2C(C)(C)C)cc1	inactive	
O=C(c1ccccc1-c1ccccc1)N1CCN(c2ccccn2)CC1	inconclusive [inhibitor, full curve]	
Cc1cc2c(cc3c(=O)n(CC(=O)NCCCN4CC(C)CC(C)C4)ncn32)s1 (stereo not drawn)	inconclusive [inhibitor, full curve]	

Reference: PubChem BioAssay AID624417 (National Center for Advancing Translational Sciences (NCATS), 2012)
